We go through 73 sequences from paper PMC10726135.

The list shows a part of the results. At the low end of the ranking, values are background and their order means little. The protein was read in a cell extract, so binding may be indirect.

This experiment deals with T1, HNF4alpha2 (COS-7 nuclear extract) (UniProt P41235).
T1 sequence: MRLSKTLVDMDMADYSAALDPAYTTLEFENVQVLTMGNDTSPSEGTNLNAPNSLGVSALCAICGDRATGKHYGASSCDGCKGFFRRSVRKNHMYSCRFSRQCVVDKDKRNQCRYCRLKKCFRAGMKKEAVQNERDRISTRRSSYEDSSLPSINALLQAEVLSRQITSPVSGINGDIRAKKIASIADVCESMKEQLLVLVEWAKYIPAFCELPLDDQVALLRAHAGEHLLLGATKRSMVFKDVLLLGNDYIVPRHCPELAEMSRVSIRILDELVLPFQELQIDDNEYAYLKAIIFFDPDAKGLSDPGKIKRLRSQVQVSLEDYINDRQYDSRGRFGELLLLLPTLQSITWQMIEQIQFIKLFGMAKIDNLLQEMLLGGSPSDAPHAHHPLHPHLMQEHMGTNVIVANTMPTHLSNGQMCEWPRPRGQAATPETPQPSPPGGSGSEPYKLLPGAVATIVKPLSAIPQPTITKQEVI
Description: protein-binding microarray. The conditions noted are these: COS-7 nuclear extract on double-stranded Agilent 4x180k PBM; binding buffer, salt, pH and temperature not given; high values mean tight binding; double strand, one strand shown; sequences stand for … in …GCCTAGGGAGATTAGAGTATCGGTCGA
For the sequence AGCACTGGAATGTCTCTGGTTGAAGGGGAG, the binding signal (log2 normalized intensity) was -1.11.
To TGTGGACTTTTTCCTGAGGGCAGGAGGAGC belongs 1.07; to CTCCCTTTGATGCGGTCAGAGTTCATTTGG, 3.48; to CACAGCTCAGATCACAAAAGATGGAACAAG, -1.08.
The figure for GAGAAAACTCCCTCAGAGATGTTTAGTGAG is 0.0672.
To GTTAAACATTCAGATTCCTGAGCCCAGATC belongs -1.11; to TGACCTTGCAGTGGCAAGGCAAAAGAGACA, 1.17; to ACTCACTATCAGGAAACTCTTTCCTAACAG, -1.1.
On to AACAAAGTCCAAATTCCTAACTATGGTTGA, for which the binding signal (log2 normalized intensity) is 1.41.
As for AACCTTTCCCTCTCTCCTGGTTTGGGGCCT, the binding signal (log2 normalized intensity) is 1.92.
For AGTTGGAAAATGTCGTTTTCCCGGTTTGTT, the binding signal (log2 normalized intensity) stood at 1.08.
The figure for TCTGCAGCCCCTTTTGGAATCCCCATCTCA is 3.63; for AAAGTCTACATTCTAGATGACCCCTCTCTA it is 3.98; for ATCATGAACTGAGTACTATCAGATCCACCA it is -0.631.
As to GTAATCCCATTTCCCTTGTTTACCTTGGTG, the binding signal (log2 normalized intensity) was determined as 1.95.
The figure for GGGTGGTGGTTACCGGCAGAGGCTGCAGAG is 0.249; for AGTGCACCTTAATAAGCACATTCCTTTCCC it is -0.816; for CCCAGTATGAGCGGCGCTGACCCCGGGAGC it is 2.54.
To AGTGAGCCTTGCCGTGCTGCGGTGGGCTCC belongs -1.25.
Consider GCCTCATGGACTTTGAAGGAGATTCCTGTG, for which the binding signal (log2 normalized intensity) was 0.859.
To ATCCTTATGGTCTCTTCCAAAGCTGAAATG belongs 1.15; to AGCAGCCTCAGTGGCTCACAAATGGAGTTT, 0.801; to GAAACATCTACCCTTGACAATTCCTATTCA, -1.15.
The figure for GATTCCACCTTAGAGGGACGAAGGTCACTA is 3.88; for GATTAGATAACATCTGGACTTTACACAGAC it is 3.76.
As for CTCAGAACTACCAATGTTTACCAGCTCTGT, the binding signal (log2 normalized intensity) is -1.15.
To TTCCCTATCCCGCTGCTTCCACCAGGGCTA belongs -1.2; to TCTTATTTACCGAAATGTGGGTGAGGCTGT, 1.6.
To AGAGCATTTCAAACCTTTGCCCCACTCTCC belongs 4.32; to AGATGATAAGCCCTGAGTAGTTCTTCTGGT, 0.188; to AGAACTTCTCATCTTATCTAGTTTCCTAGC, -0.146.
The figure for CCAACCCAACTAGAATGGAACTGAAGGCAG is -1.17.
In the case of AGGCTGAGGCAGGATGACTGCTTGAGTCCA, the binding signal (log2 normalized intensity) came to 0.968.
Take GAAAGCCTGTTTGCTTCTGCTGTTTGTTTC: the binding signal (log2 normalized intensity) was 1.77.
To AATCAAACTCTCTGTGGATGTATGTCCAGA belongs 1.19; to AAGTAGAATGAAAGCGGCTCAGGAAACAGC, -1.16.
To ATACTATTCATCCTCCAAAACCCAGTTCAT belongs 3.39; to ATACCCAGAGTGATCTTTGAAACATAACAG, 1.56.
In the case of TCAAACAGCTTCGCCTCCTCCAAGCATACC, the binding signal (log2 normalized intensity) was -1.05.
The figure for TGGAGGCTGGAGCTCCTGGGCCAAAGGGCA is 3.46; for TTTGTGTTTGTCCCTTTCTTCTTCTGCCAC it is 1.37.
To GAAAGTCTGACCCTTGACCAAGCAGCTGTT belongs 3.51.
To CGAGTCAAGGGTCAATCCTCTCTTTGGAAT belongs 2.31; to AGAACAAGGTAGCCACAGAATGACTCTTGT, -0.979; to GTGGATGCTGGAATGAGGGAGGCAGCCACC, -1.16.
On to CCCATCTTCCAGAAATGCCAAGATCAGGGC, for which the binding signal (log2 normalized intensity) is -0.946.
To CTTCTGCCCCCGCAGACCCAGTCTTAGGGA belongs 4.14; to TTTTCCTCTAACCACTTTGAAATAGTGACC, 2.46.
The figure for GAAGCTTGAAGGAGTATATGGCTAAGCGAA is -0.94; for GGAACCCCACCCCCACGCCCCCCAGCGGAA it is 7.16; for AGGTTGCAGTGAGCTGTGATTGCGCCACTG it is -1.15.
As for GTCAAACTGATCAGAAGTGGTTACATCTAT, the binding signal (log2 normalized intensity) was -0.449.
As to TAGGTCCCTGCTTCCAAGTCTCAGCACCTG, the binding signal (log2 normalized intensity) is -1.1.
The figure for GCCGGCCCGCAGGTCAGTCGACCCTCTCTG is 1.53; for GCAGTCAGGACTCTGGGACCGCAGGGGGCT it is -1.14; for TGGACTCCTCTTATCTTCAGGTATCCTTAA it is 1.07.
The figure for ATGACCTGGACAGGTCCAAGGTTCTCCAGG is 1.61; for ACAAAGGGGGAGGGAGATAGAGAAAGAAAA it is -1.14.
The figure for GAGACACCTGGCCAAGTACAGCCTGTGCTA is -1.09.
AACAGAGTCTCCGAGGAACCCAGACTGCAT: the binding signal (log2 normalized intensity) was -1.11.
In the case of ACCTTTGGGCTAAAAAGGAAGCTGTGTGTG, the binding signal (log2 normalized intensity) was 1.71.
The figure for AGATGAGTTTCTTCACTGACGAAACTCACA is -1.13; for TATCTCCAGCAAACGTTCTTCTCTAACCCT it is -1; for TGGATGGGGGCGTTCCCCGAGCGAGCTCCG it is -1.09.
For the sequence GTCAATAGGGCAGGGGGGAGATGAAATCTG, the binding signal (log2 normalized intensity) was -1.18.
The figure for TGCACTTTACGTAAGATAAGGTGAACATAC is 0.896; for AAGGTCAGGACCACACATTCCATTACTGCA it is -1.18.
The figure for CCTAAAACATCAAATACCTCCAAGAGGTTT is -1.07; for AAAGGAGACTTTTAAGTGGGGTCAAAGGGT it is 5.04; for AACTCACAGTCTGGCAGTGAAGGTTCAGTG it is 1.62.
Consider AAGTAAGCAGACACTGAAAGATGGTATGCT, for which the binding signal (log2 normalized intensity) is -1.04.
The figure for GCTGCCAATGCAAATCCCAGAGTTCAAAGG is 4.35.
Take ACAGAGAGAAAGCAGTGACCATCCCAAAGC: the binding signal (log2 normalized intensity) is -1.19.
